Where “and” joins values, the source holds several entries; their conditions need not be identical. Equal values may be shown once. About 1,100 (0.39%) of roughly 280,000 compounds were called active. Inconclusive results, whose numbers are uncertain, are shown with a selection of clear calls. The call rests on the fitted dose curve; in most records, active means well fitted inhibition curve with a large enough effect; inconclusive means small, poorly fitted or top-dose-only effect, or effect the other way; inactive means flat fitted curve, though single readings scatter. Where the call is inconclusive, the potency comes from a doubtful curve fit.
target: Microtubule-associated protein tau (Homo sapiens) (UniProt P10636); assay: qHTS for Inhibitors of Tau Fibril Formation, Fluorescence Polarization; conditions: K18 P301L tau heparin fibrillization, Alexa594 FP, 6 h; series mostly up to 57.7 µM; further: nearly all actives have a fitted effect of over 55% in size
Procedure, shortened: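 Recombinant K18 P301L […], labeled with Alexa 594 at 0.24 uM over 15 uM unlabeled; heparin inducer 20 uM final; 37 C, 6 hr; FP endpoint.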
Potency means the concentration at half of the fitted maximal effect; tags describe the fitted curve by direction and shape.

Chain of UniProt P10636 (P10636 whole entry, looked up): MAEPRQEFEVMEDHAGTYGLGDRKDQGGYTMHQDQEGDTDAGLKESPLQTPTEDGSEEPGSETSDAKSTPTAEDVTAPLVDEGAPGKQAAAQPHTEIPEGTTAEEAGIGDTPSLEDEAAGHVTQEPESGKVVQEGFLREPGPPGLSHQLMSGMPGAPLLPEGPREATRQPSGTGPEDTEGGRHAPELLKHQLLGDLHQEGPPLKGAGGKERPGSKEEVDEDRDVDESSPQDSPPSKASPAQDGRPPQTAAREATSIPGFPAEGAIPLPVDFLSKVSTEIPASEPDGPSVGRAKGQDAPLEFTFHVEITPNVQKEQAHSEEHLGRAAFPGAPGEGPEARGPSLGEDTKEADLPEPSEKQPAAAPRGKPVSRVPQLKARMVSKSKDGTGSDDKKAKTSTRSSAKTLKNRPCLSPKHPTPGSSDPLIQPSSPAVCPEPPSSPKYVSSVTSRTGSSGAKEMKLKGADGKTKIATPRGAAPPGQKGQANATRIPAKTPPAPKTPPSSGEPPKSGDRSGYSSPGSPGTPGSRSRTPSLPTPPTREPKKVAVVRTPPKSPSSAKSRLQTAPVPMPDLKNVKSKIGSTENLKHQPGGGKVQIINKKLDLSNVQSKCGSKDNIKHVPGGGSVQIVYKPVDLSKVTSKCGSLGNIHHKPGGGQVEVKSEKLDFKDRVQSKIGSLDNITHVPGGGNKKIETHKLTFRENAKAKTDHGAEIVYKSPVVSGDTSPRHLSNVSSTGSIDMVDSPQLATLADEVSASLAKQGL

SMILES	Potency
Nc1nsc2ccccc12	inconclusive: 8.91 µM [inhibitor, partial curve]
CCSc1nc2ccccc2c(OCc2ccc(Cl)cc2)c1C(=O)OC	inconclusive: 11.2 µM [inhibitor, partial curve, poor fit]
Cc1ccc(N2C(=O)CC(NCC3CCCO3)C2=O)cc1 (configuration not stated)	inactive
CCC(Sc1nc2sc(C(=O)OC)c(C)c2c(=O)n1N)C(=O)N(CC)CC (configuration not stated)	inactive
COc1cc(N/C=C2\CC(=O)NC(C)=C2C#N)cc(OC)c1OC	inconclusive: 15.8 µM [inhibitor, partial curve, poor fit]
Cc1ccc(S(=O)(=O)Nc2ccc3nc(-c4cccc(Cl)c4)oc3c2)cc1	inconclusive: 20 µM [inhibitor, partial curve]
CCC(=O)N1CCc2cc(S(=O)(=O)NC(Cc3ccccc3)C(=O)O)ccc21 (configuration not stated)	inactive
Cc1cccc(C)c1NC(=O)CSc1nnc(-c2ccco2)c(-c2ccco2)n1	inconclusive: 31.6 µM [inhibitor, single point]
O=C1OC(Nc2ccc(F)c([N+](=O)[O-])c2)c2ccccc21 (configuration not stated)	inactive
CCCOc1ccc(N2C(=O)CC(SCCN)C2=O)cc1 (configuration not stated)	inactive
CC(C)(C)c1ccc(C(=O)Nc2c(C(=O)c3ccc(F)cc3)oc3ccccc23)cc1	inconclusive: 3.55 µM [inhibitor, partial curve]
COc1ccc(-c2nc(NC(=O)c3cc(C(C)(C)C)nn3C)sc2C)cc1	inactive
COc1ccccc1CNC(=O)COCc1cc(-c2cccs2)on1	inactive
CCSc1nc2ccccc2c(OCc2ccccc2Cl)c1C(=O)OC	inconclusive: 7.94 µM [inhibitor, partial curve]
O=C(NC(c1ccccc1)c1ccccn1)c1cccc([N+](=O)[O-])c1 (configuration not stated)	inactive
O=C(Nc1ccc([N+](=O)[O-])cc1)Nc1ccc(Cl)cc1F	inconclusive: 20 µM [inhibitor, single point]
COc1ccc(-c2nc3sc(CCNS(=O)(=O)c4ccccc4)c(C)n3n2)cc1	inconclusive: 31.6 µM [inhibitor, single point]
O=C(COc1cccc(C(F)(F)F)c1)Nc1ccc(S(=O)(=O)N2CCCC2)cc1	inconclusive: 35.5 µM [inhibitor, single point]
O=C(c1cc(F)ccc1F)C1CCCN(C(=O)CCc2cnccn2)C1 (configuration not stated)	inconclusive: 8.91 µM [inhibitor, single point]
CCOC(=O)C1=C(C)Nc2ncnn2C1c1c[nH]c2ccccc12 (configuration not stated)	inactive
O=Cc1ccc(N2CCCC2)o1	inactive
Cc1nnc(SCC(=O)c2c(N)n(C)c(=O)n(C)c2=O)[nH]c1=O	inactive
CCOc1cc(N2CCOCC2)c(OCC)cc1NC(=O)COC(=O)c1cc(C)cc(C)c1	inconclusive: 12.6 µM [activator, partial curve]

SMILES	Potency
CN(C)C1=NC(=O)/C(=C\c2ccccc2)S1	inactive
Cc1cccc(NC(=S)NCCSc2ccc(Cl)cc2)c1	inconclusive: 22.4 µM [inhibitor, partial curve]
Cc1ccc(Nc2nc(N)nc(CSc3nc4ccccc4s3)n2)cc1	inconclusive: 12.6 µM [inhibitor, partial curve] and inconclusive: 14.1 µM [inhibitor, partial curve]
CCOc1cc(/C=N\NC(=O)Cn2nc([N+](=O)[O-])cc2C)ccc1OCc1cccc2ccccc12	inconclusive: 14.1 µM [inhibitor, partial curve]
Cc1ccc2sc(N(CCCN(C)C)C(=O)c3ccc(Br)s3)nc2c1C	inconclusive: 20 µM [inhibitor, single point]
CSc1ccc(S(=O)(=O)Nc2ccc(S(=O)(=O)Nc3ccc(C)cc3)cc2)cc1	inconclusive: 14.1 µM [inhibitor, partial curve]
COc1ccc(OC)c(N(CC(=O)Nc2ccc3c(c2)OCO3)S(=O)(=O)c2ccccc2)c1	inconclusive: 8.91 µM [inhibitor, single point]
Cc1cc(C)cc(NC(=O)CSc2ccc(-c3cccs3)nn2)c1	inconclusive: 15.8 µM [inhibitor, partial curve]
COC1=C(Nc2ccccc2)C(=O)c2ccccc2C1=O	inconclusive: 8.91 µM [inhibitor, partial curve]
CCOC(=O)C1(C)/C(=N/Nc2ccc(Cl)cc2)C(=O)C(=O)N1c1ccccc1 (configuration not stated)	inconclusive: 39.8 µM [inhibitor, single point]
Cc1cc(NS(=O)(=O)c2ccc(NC(=O)COc3ccccc3Br)cc2)no1	inconclusive: 1.58 µM [inhibitor, full curve, poor fit]
Cc1ccccc1Nc1nn2c(=O)c3ccc(C(=O)NCc4cccs4)cc3nc2s1	inconclusive: 15.8 µM [inhibitor, partial curve]
COc1ccccc1C(=O)n1nc(-c2ccccc2)nc1NCc1ccc(Cl)cc1	inconclusive: 44.7 µM [inhibitor, single point]
COc1ccc(CCNc2ncnc3c2cnn3-c2ccc(C)c(Cl)c2)cc1	inconclusive: 12.6 µM [inhibitor, partial curve]
O=[N+]([O-])c1c(Nc2ccccn2)cc(Cl)c2nonc12	inconclusive: 22.4 µM [inhibitor, partial curve]
C=CCNC(=S)N1CCN(CCN=CC2=C(O)CC(c3cccs3)CC2=O)CC1 (configuration not stated)	inactive
CC1(OC(=O)CCc2ccccc2)C(=O)C=C2C=C(c3ccc(C#N)cc3)N(c3ccccc3)C=C2C1=O (configuration not stated)	inconclusive: 17.8 µM [inhibitor, partial curve]
Cc1ccc(-c2cc(O)cc3sc(=O)oc23)cc1C	active: 22.4 µM
CCCCN(CCCC)S(=O)(=O)c1ccc(NS(=O)(=O)c2ccc(NC(C)=O)cc2)cc1	active: 22.4 µM
COc1ccc([C@@H]2[C@H]3CN(C(C)=O)CC=C3C(C#N)=C(N)C2(C#N)C#N)c2ccccc12	inconclusive: 39.8 µM [inhibitor, single point]
O=C(Cn1c(=O)n(Cc2ccco2)c(=O)c2oc3ccccc3c21)Nc1ccccc1	inconclusive: 15.8 µM [inhibitor, partial curve, poor fit]
NC(=O)C1=C[C@H](c2ccc(Br)cc2)C[C@H](OCc2ccc(CO)cc2)O1	inactive
Cc1ccc(CNC(=O)CCc2nc3ccccc3c(=O)[nH]2)cc1	inconclusive: 44.7 µM [inhibitor, single point]

SMILES	Potency
COc1ccccc1N1CCN(C(=O)C2CCN(S(=O)(=O)c3cn(C)cn3)CC2)CC1	inactive
COc1ccc2c(c1)-c1c(ssc1=S)C(C)(C)N2	inactive
CC(C)(C)OC(=O)NCc1ccc(NC(=O)c2nc[nH]c2C(=O)N[C@@H](Cc2ccccc2)C(=O)OCc2ccccc2)cc1	active: 10 µM
COCc1cc(=O)oc2cc(NS(=O)(=O)c3ccc(C)cc3)ccc12	inconclusive: 25.1 µM [inhibitor, partial curve]
CCOc1cccc(CNCCCSc2nnnn2C)c1	inactive
Cc1ccc2nc(-c3cccc(NC(=O)c4ccco4)c3)[nH]c2c1	inconclusive: 17.8 µM [inhibitor, single point]
N#CCCn1cc(C(=O)Nc2ccccc2Br)c(-c2cccs2)n1	inconclusive: 10 µM [inhibitor, partial curve]
O=C(Nc1cccc(C(F)(F)F)c1)NC1CCN(S(=O)(=O)c2ccc(F)cc2)CC1	inconclusive: 14.1 µM [inhibitor, partial curve]
C/C(=N\NC(=S)NCc1ccccc1)c1ccc2ccccc2c1OC(F)F	inactive
CCOC(=O)Cc1ccc(NC(=O)NC(C)c2c(-n3cccc3)sc(C)c2C)cc1 (configuration not stated)	inconclusive: 39.8 µM [inhibitor, single point]
CN(C(=O)c1ccc(C#N)cc1)c1nnc(-c2ccccn2)s1	inconclusive: 1.12 µM [inhibitor, full curve, poor fit]
CCOC(=O)C1=C(C)n2c(s/c(=C3\C(=O)Nc4ccccc43)c2=O)=NC1c1ccc(OC)cc1 (configuration not stated)	inconclusive: 39.8 µM [inhibitor, single point]
COc1cc(OC)cc(C(=O)N/N=C/c2ccc(OC)c(COc3ccc(F)cc3)c2)c1	inconclusive: 39.8 µM [inhibitor, single point]
O=C(CSc1nnc(-c2ccccc2)o1)c1ccc2c(c1)OCCO2	inactive
CC(=O)c1cccc(NC(=O)C(OC(=O)c2ccccc2NS(=O)(=O)c2cccs2)c2ccccc2)c1 (configuration not stated)	active: 17.8 µM
O=C(Nc1ccc(Br)cc1)c1cc(S(=O)(=O)NC2CCCC2)ccc1F	inconclusive: 12.6 µM [inhibitor, partial curve]
N#C/C(=C\c1ccc(-c2ccc(S(=O)(=O)N3CCOCC3)cc2)o1)C(=O)NC1CC1	inconclusive: 2.51 µM [inhibitor, partial curve, poor fit]
COc1cc(O)cc(/C=C/c2ccccc2)c1	inconclusive: 28.2 µM [inhibitor, single point]
CCc1ccc(NC(=O)Cn2c(=O)n(-c3ccccc3C)c(=O)c3c2c2cc(OC)ccc2n3C)cc1	inconclusive: 44.7 µM [inhibitor, single point]
CCOc1ccccc1N1CCN(C2=C(NS(=O)(=O)c3cccs3)C(=O)c3ccccc3C2=O)CC1	inconclusive: 22.4 µM [inhibitor, single point]
CCC(Sc1nnc2c3ccccc3n(CC)c2n1)C(=O)Nc1ccc(NC(C)=O)cc1 (configuration not stated)	inconclusive: 8.91 µM [activator, partial curve]

From PubChem BioAssay AID1468 (National Center for Advancing Translational Sciences (NCATS), 2008)
